# The data scatter; read single values as rough.
# Assay: amyloid nucleation score relative to library mode (yeast Sup35 reporter selection) (log enrichment difference); higher = more amyloid nucleation; sequences are the first 22 residues of the Bri2 peptide extended by up to 12 random residues
# Details: random library (experiment): 2;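 active = nucleation score significantly above 0 at FDR 0.05; inactive = not significantly above 0 or absent from output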
# 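Further: [psi-pin-] Saccharomyces cerevisiae expressing SupN fusions, induced by 100 µM Cu2SO4, selected 7 d at 30 °C without adenine and uracil, scored by deep sequencing of output versus input.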
row,Sequence,amyloid nucleation score
1,EASNCFAIRHFENKFAVETLICPMNYRTILFWNK,3.44
2,EASNCFAIRHFENKFAVETLICDSYLCVRCDQLD,-0.399
3,EASNCFAIRHFENKFAVETLICCYLTLNVVSGGT,inactive
4,EASNCFAIRHFENKFAVETLICYIDNDV,6.2
5,EASNCFAIRHFENKFAVETLICCLWIGCLSSMRR,3.79
6,EASNCFAIRHFENKFAVETLICEMYLFMPPFVLN,4.39
7,EASNCFAIRHFENKFAVETLICHNTKYLFKCECL,4.46
8,EASNCFAIRHFENKFAVETLICILNIAAVPSVLK,inactive
9,EASNCFAIRHFENKFAVETLICTIYLGLRSLFTV,inactive
10,EASNCFAIRHFENKFAVETLICIAYMFVQEGVFS,inactive
11,EASNCFAIRHFENKFAVETLICKDLFRQGPNTDL,6.94
12,EASNCFAIRHFENKFAVETLICNRVTSWGRLGSS,2.78
13,EASNCFAIRHFENKFAVETLICNEYDRSLVYHKI,inactive
14,EASNCFAIRHFENKFAVETLICTYAVWMRVVSKW,0.644
15,EASNCFAIRHFENKFAVETLICNQSGVRYVVSVG,inactive
16,EASNCFAIRHFENKFAVETLICPVWVERGSPGSG,4.89
17,EASNCFAIRHFENKFAVETLICKCFCTSGSSV,7.75
18,EASNCFAIRHFENKFAVETLICYMVHIYGIDVYR,-0.0198
19,EASNCFAIRHFENKFAVETLICWRESRQDRTGEE,inactive
20,EASNCFAIRHFENKFAVETLICKFMICDFECFAT,5.41

row,Sequence,amyloid nucleation score
1,EASNCFAIRHFENKFAVETLICHWCGFFFHSDVE,8.08
2,EASNCFAIRHFENKFAVETLICLLFRCITMLNER,-0.0198
3,EASNCFAIRHFENKFAVETLICGYWGYEYGNGME,inactive
4,EASNCFAIRHFENKFAVETLICLLR,inactive
5,EASNCFAIRHFENKFAVETLICIIHMF,4.37
6,EASNCFAIRHFENKFAVETLICNHVGRCTGSFTG,inactive
7,EASNCFAIRHFENKFAVETLICILCHWYNWFYTS,inactive
8,EASNCFAIRHFENKFAVETLICPSGLLVLCIFGS,0.644
9,EASNCFAIRHFENKFAVETLICCKAIMV,inactive
10,EASNCFAIRHFENKFAVETLICTINFRHIDCPTL,1.74
11,EASNCFAIRHFENKFAVETLICYSLIMYPWNPLS,1.46
12,EASNCFAIRHFENKFAVETLICCEFLIHYRIAMY,inactive
13,EASNCFAIRHFENKFAVETLICPTLGPGRLVFFI,0
14,EASNCFAIRHFENKFAVETLICGWDNLRERVCKS,inactive
15,EASNCFAIRHFENKFAVETLICVNSCLLDQLSVR,3.89
16,EASNCFAIRHFENKFAVETLICEGGYTQRESSRM,inactive
17,EASNCFAIRHFENKFAVETLICYALALNCLTIYP,inactive
18,EASNCFAIRHFENKFAVETLICGFVFNEVYGRVV,3.2
19,EASNCFAIRHFENKFAVETLICHTRVYIFYWKMG,inactive

# Same assay, conditions: random library (experiment): 3
row,Sequence,amyloid nucleation score
1,EASNCFAIRHFENKFAVETLICLFCSPMYTSCEV,8.88
2,EASNCFAIRHFENKFAVETLICFNVVLIGYIVKW,inactive
3,EASNCFAIRHFENKFAVETLICACLTRYGLGRMF,inactive
4,EASNCFAIRHFENKFAVETLICVCMRTDSSRGRC,6.79
5,EASNCFAIRHFENKFAVETLICVSFLIVFGLVNV,inactive
6,EASNCFAIRHFENKFAVETLICDAMLLMGTWTA,inactive
7,EASNCFAIRHFENKFAVETLICIW,7.33
8,EASNCFAIRHFENKFAVETLICLAWYVCR,inactive
9,EASNCFAIRHFENKFAVETLICCIS,8.2
10,EASNCFAIRHFENKFAVETLICLRVLASWKLFGP,inactive
11,EASNCFAIRHFENKFAVETLICNSLFLLYNGPGR,6.33
12,EASNCFAIRHFENKFAVETLICGYLWSEAFVRGS,inactive
13,EASNCFAIRHFENKFAVETLICRGRTSYPMHLRR,inactive
14,EASNCFAIRHFENKFAVETLICLVVETRICPGRV,inactive
15,EASNCFAIRHFENKFAVETLICGHMCRLCWKRRL,inactive
16,EASNCFAIRHFENKFAVETLICLTDATMSRNGDG,inactive
17,EASNCFAIRHFENKFAVETLICDLNLVPCCRAKW,4.39
18,EASNCFAIRHFENKFAVETLICMASSGWTGRVLA,inactive
19,EASNCFAIRHFENKFAVETLICMSKGWAEPWRGL,4.93
20,EASNCFAIRHFENKFAVETLICVPRC,3.93
21,EASNCFAIRHFENKFAVETLICTTPWGFCELCSW,inactive

# Reference: the supplement of paper PMC12067230
